This is an account of results in ChEMBL document CHEMBL1201862, “PubChem BioAssay data set” (2004).

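A five-concentration, 48-hour dose response in 96-well plates underlies each endpoint, interpolated linearly between surrounding concentrations. GI50 = concentration required for 50% inhibition of growth.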 The source made the active and inactive calls. Cut-off read from the data, not from the text of the source: active = GI50 up to about 1.1 µM and inactive = higher.

The assay has as its system NCI-H322M. Kind of assay: NCI-60 cell line screen, 48 h.
Take `O=C1C=C(N2CCCC2)C(=O)c2c(O)ccc(O)c21`: the GI50 was inactive: > 10 µM.

Consider `CN1C2CCC1CN(CCOC(c1ccc(F)cc1)c1ccc(F)cc1)C2`, for which the GI50 is inactive: 46.6 µM.

Regarding `Oc1c(Br)cc(CN(Cc2cc(Br)c(O)c(Br)c2)C2CCCCC2)cc1Br`, the GI50 is inactive: > 100 µM.

For the compound `C=C1[C@@H](C)[C@H]2[C@H](Cc3ccccc3)NC(=O)[C@]23OC(=O)/C=C/[C@H](O)CCC[C@@H](C)C/C=C/[C@H]3[C@@H]1O`, the GI50 is inactive: 29.4 µM.

As to `NN(CC(=O)O)CC(=O)O`, the GI50 was inactive: > 100 µM.

As for `COc1ccc(OC)c2c(C)ccnc12`, the GI50 was inactive: 40.4 µM.

For the compound `CC(C)CNP(=O)(NCC(C)C)Oc1ccc(CC(NC(=O)OCc2ccccc2)C(=O)OCc2ccccc2)cc1` (stereo not drawn), the GI50 was inactive: 13.4 µM.

Consider `O=C1CCCC[C@H]1[C@H]1CCC[C@@H]([C@H]2CCCCC2=O)C1=O`, for which the GI50 is inactive: > 100 µM.

As for `Cc1cc2c(cc1C)C(=O)/C(=N/Nc1ccc(F)cc1)CCO2`, the GI50 was inactive: > 100 µM.

Regarding `CCOc1ccc(NC(=O)CC2Sc3ccccc3NC2=O)cc1` (stereo not drawn), the GI50 is inactive: > 100 µM.

On to `CN(C)c1ccc(/C=C/c2ccnc3ccccc23)cc1`, for which the GI50 was inactive: > 100 µM.

Take `O=C(O)c1nc2ccc(C(F)(F)F)cc2nc1Nc1ccc(F)cc1`: the GI50 is inactive: 25 µM.

For `COc1cccc(C=C2N=C(c3ccccc3)N(n3c(-c4ccccc4)nc4ccccc4c3=O)C2=O)c1`, the GI50 was inactive: > 100 µM.

For the compound `OC(c1ccccc1)C(F)(F)c1nc2ccccc2o1` (stereo not drawn), the GI50 is inactive: > 100 µM.

As to `CCOC(=O)c1nnsc1NN=C(C)C`, the GI50 was inactive: > 100 µM.

In the case of `CCN(CC)c1ccc2cc(-c3csc(-c4ccc(N(C)C)cc4)n3)c(=O)oc2c1`, the GI50 was inactive: > 100 µM.

Consider `NC(Cc1cccnn1)C(=O)O` (stereo not drawn), for which the GI50 is inactive: > 100 µM.

In the case of `COC(=O)C1CCC(=O)N1C(c1ccc(OC)cc1)c1ccc2c(c1)OCO2` (stereo not drawn), the GI50 is inactive: 57.1 µM.

Consider `CC(=O)OCC1CCC(=C2C(=O)OC(C)(C)OC2=O)N1` (stereo not drawn), for which the GI50 was inactive: > 100 µM.

Regarding `CC1=C(/C=C/C(C)=C/C=C/C(C)=C/C=C/C=C(C)/C=C/C=C(C)/C=C/C=C(C)/C=C/C=C(\C)C(=O)O)C(C)(C)CCC1`, the GI50 is inactive: > 100 µM.

Regarding `CC(C)(C)OC(=O)N1CCC23CCCC2C(=O)CC=C13` (stereo not drawn), the GI50 was inactive: > 100 µM.

With `CCn1c(=O)c2c3ccc(O)cc3[nH]c2c2ccc(O)cc21`, the GI50 was inactive: 73.1 µM.

For the compound `COc1nc(NC2OC(COC(C)=O)C(OC(C)=O)C(OC(C)=O)C2OC(C)=O)c(/N=C/C=N/c2c(NC3OC(COC(C)=O)C(OC(C)=O)C(OC(C)=O)C3OC(C)=O)nc(OC)n(C)c2=O)c(=O)n1C` (stereo not drawn), the GI50 was inactive: > 100 µM.

In the case of `COc1ccc(O)c(/C(C)=N/NC(=S)N(C)C)c1`, the GI50 is inactive: 22.1 µM.

Consider `CN(C)C(=O)C(F)(F)C(c1ccc(C(F)(F)F)cc1)C1C(=O)N(C)C(=O)N(C)C1=O` (stereo not drawn), for which the GI50 is inactive: > 100 µM.

Consider `Cc1ccc(/N=N/N(C)C(C)C(O)Cc2ccccc2)cc1` (stereo not drawn), for which the GI50 was inactive: 52.8 µM.

As for `O=C(Cc1nc2ncccc2[nH]c1=O)c1c[nH]c2ccccc12`, the GI50 is inactive: 21.2 µM.

For the compound `O=[N+]([O-])C(=C1NCCN1)/C(Cl)=C(/Cl)N1CCOCC1`, the GI50 is inactive: > 100 µM.

With `C=CC1C(OC2OC(CO)C(O)C(O)C2O)OC=C(C(=O)OC)C1CC1CC(=O)CC(CCc2ccc(O)cc2)O1` (stereo not drawn), the GI50 was inactive: > 100 µM.

As for `C[N+]12C=CC=C1C(N1CCCC1)c1sc(-c3ccc(Cl)cc3)cc12` (stereo not drawn), the GI50 is inactive: 30.7 µM.

Regarding `CC(=O)/C(=C/NC(=S)N/N=C1\C(=O)Nc2ccccc21)C(=O)Nc1ccccc1C`, the GI50 is inactive: > 100 µM.

For the compound `Cc1cc(C)nc(NS(=O)(=O)c2ccc(Nc3c4ccccc4nc4ccc(C(=O)Nc5ccc(S(=O)(=O)N=C(N)N)cc5)cc34)cc2)n1`, the GI50 was inactive: > 100 µM.

Regarding `CC1=C2CC(C)(C)CC(=O)C2(C)CCC1=O` (stereo not drawn), the GI50 was inactive: > 100 µM.

As to `COc1cc(-c2c(C#N)c(N)c(C#N)c3c2COc2ccccc2-3)cc(OC)c1OC`, the GI50 is inactive: > 26.5 µM.

Take `C#CCCCCC#Cc1ccccc1C(=O)C=[N+]=[N-]`: the GI50 was inactive: > 100 µM.

In the case of `O=C(Nc1ccc(C(F)(F)F)cc1[N+](=O)[O-])c1cccnc1`, the GI50 is inactive: 6.05 µM.

`CON(C)C(=O)CCCO`: the GI50 was inactive: > 100 µM.

Take `COc1cc(C2SCC(=O)N2c2ccc(NC(C)=O)cc2)cc(OC)c1OC` (stereo not drawn): the GI50 is inactive: > 100 µM.

Turning to `C#C[C@]1(O)CC[C@H]2[C@@H]3CCc4cc(OC(=O)c5cccc6cc7ccccc7nc56)ccc4[C@H]3CC[C@@]21C`, the GI50 is inactive: 26.5 µM.

`C=C1OC(c2ccccc2NC)=NC12CCCCC2`: the GI50 was inactive: > 100 µM.

For the compound `COc1ccc(-c2c(-c3ccccc3)c(C)nc3nc(SC)nc(SC)c23)cc1OC`, the GI50 was inactive: 17.5 µM.

For `COC(=O)C1OC(O[C@H]2CC[C@]3(C)[C@H]4CC=C5[C@@H]6CC(C)(C)CC[C@]6(C(=O)OC)[C@H](O)C[C@@]5(C)[C@]4(C)CC[C@H]3C2(C)C)C(O)C(O)C1O` (stereo partly drawn), the GI50 is inactive: 5.41 µM.

For `CN[C@@H](C)[C@H](NC)c1ccccc1`, the GI50 was inactive: > 100 µM.

For `CN(CCO)c1nc2c(c(=O)[nH]1)CNCC2`, the GI50 is inactive: > 100 µM.

As to `COC(=N)C(C)C`, the GI50 is inactive: > 100 µM.

`CN(C)C[C@H]1CC[C@@H](CN(C)C)C1=O`: the GI50 was inactive: > 50 µM.

With `O=[N+]([O-])c1ccc(C[P+]2(c3ccccc3)CCCCC2)cc1.[O-][Cl+3]([O-])([O-])[O-]`, the GI50 was inactive: > 100 µM.

Turning to `O=C(O)C1(Cc2ccccc2)Cc2cc3c(cc2C1)CCC3`, the GI50 is inactive: > 100 µM.

Take `COc1ccc(NC(=O)C(=O)Cc2ccc([N+](=O)[O-])c([N+](=O)[O-])c2CC(=O)C(=O)Nc2ccc(OC)cc2OC)c(OC)c1`: the GI50 is inactive: > 100 µM.

On to `CC12c3c4cccc3Oc3cc(N)cc(c31)Oc1cc(N)cc(c12)O4`, for which the GI50 is inactive: 5.6 µM.

On to `O=C(c1ccccc1)c1ccc(N2C(=O)/C(=C/c3cccc([N+](=O)[O-])c3)N=C2c2ccccc2)c(N2C(=O)/C(=C/c3cccc([N+](=O)[O-])c3)N=C2c2ccccc2)c1`, for which the GI50 was inactive: > 100 µM.

Turning to `C=CSCCC(N)C(=O)O` (stereo not drawn), the GI50 is inactive: > 100 µM.

Consider `CCN(CC)C(=O)CCCCCCCCC1CO1` (stereo not drawn), for which the GI50 was inactive: > 100 µM.

For the compound `COc1nc(=O)n(C2CC(N=[N+]=[N-])C(CO)O2)cc1C` (stereo not drawn), the GI50 was inactive: > 100 µM.

As for `CCSC1=CC(=O)c2nc3ccccc3c3ccnc1c23`, the GI50 was inactive: 11 µM.

As for `O=c1[nH]/c(=C/c2cccs2)c(=O)[nH]/c1=C/c1ccc(OCc2ccccc2)cn1`, the GI50 is active: 0.0871 µM.

With `CCCCCCCCCCCCCCCCCC(=O)OCC(COC1OC(COP(=O)(O)O)C(O)C(O)C1O)OC(=O)CCCCCCCCCCCCCCCCC` (stereo not drawn), the GI50 was inactive: 7.11 µM.

Consider `c1ccc(N2N=C3N(c4ccccc4)C2N3c2ccccc2)cc1`, for which the GI50 is inactive: 37.6 µM.

In the case of `O=C(CCCN1CCc2[nH]c3cc(F)ccc3c2C1)c1ccc(F)cc1`, the GI50 is inactive: 12.7 µM.

In the case of `COc1ccc2nc3ccc(OC)cc3c(S(=O)(=O)Cc3ccc([N+](=O)[O-])cc3)c2c1`, the GI50 was inactive: > 100 µM.

As for `O=C(N/C(=C/c1ccc(Cl)cc1Cl)c1nc2ccccc2s1)c1ccccc1`, the GI50 was inactive: 17.5 µM.

`C/C(CCn1[nH]c(=O)ccc1=O)=N\NC(=O)C(N)=O`: the GI50 is inactive: > 100 µM.

Consider `C=CC/C(C(=O)OC)=C(/C(=O)OC)N(CCC)CCC`, for which the GI50 was inactive: > 100 µM.

As for `Cc1c/c(=N\c2ccc3c(c2)c(N)cc(C)[n+]3C)nc(N)n1C`, the GI50 is inactive: > 100 µM.

With `COC(=O)/C=C\C(C#N)(C#N)/N=C/c1cc(Br)cs1`, the GI50 was inactive: 15.5 µM.

With `O=c1[nH]c(=O)n(C2CC(O)C(CO)O2)cc1OC/C=C/Cc1ccccc1` (stereo not drawn), the GI50 was inactive: > 100 µM.

Regarding `CC(=O)O[C@H]1C(=O)[C@@]2(C)[C@H]([C@H](OC(=O)c3ccccc3)[C@]3(O)C[C@H](OC(=O)[C@H](O)[C@@H](NC(=O)c4ccccc4)c4cccc(N(C)C)c4)C(C)=C1C3(C)C)[C@]1(OC(C)=O)CO[C@@H]1C[C@@H]2O`, the GI50 is inactive: 2.36 µM.

Consider `CC(=O)C1=CCC2c3[nH]c4ccccc4c3CCN2C1` (stereo not drawn), for which the GI50 was inactive: > 100 µM.

Consider `C=C(C)/C=C/C(O)[C@](C)(O)[C@H]1[C@H](O)C[C@@]2(C)[C@@H]3CCc4c(cc(OC5OC(CO)C(O)C(O)C5O)c(O)c4C)C3(C)C(=O)C[C@]12C` (stereo partly drawn), for which the GI50 was inactive: > 100 µM.

In the case of `c1ccc(C(=NNc2nc3ccccc3o2)c2ccccn2)nc1`, the GI50 was active: 0.0738 µM.

Take `C[C@]12CCCC(=O)C1(O)C[C@H](C(=O)O)CC2` (stereo partly drawn): the GI50 is inactive: > 100 µM.

Turning to `COc1cc(C2c3cc4c(cc3[C@@H](NCCN3CCOCC3)C3COC(=O)[C@H]23)OCO4)cc(OC)c1O` (stereo partly drawn), the GI50 was inactive: 7.06 µM.

Turning to `O=C1c2scc(-c3ccc(Cl)cc3)c2-n2cccc21`, the GI50 was inactive: > 100 µM.

On to `COc1c(Br)cc(/C=C(\C#N)c2ccccn2)cc1Br`, for which the GI50 is inactive: > 100 µM.

In the case of `COc1ccc(C2(c3ccc(OC)cc3)OC(=O)c3cccc4cccc2c34)cc1`, the GI50 was active: 0.107 µM.

For `CC(=O)O[C@H]1CC2C(C3CCC(C(C)CCC(=O)O)[C@]31C)[C@H](OC(C)=O)C[C@@H]1CC3(CC[C@]21C)OOC1(CC[C@]2(C)C4C[C@H](OC(C)=O)[C@]5(C)C(C(C)CCC(=O)O)CCC5C4[C@H](OC(C)=O)C[C@@H]2C1)OO3` (stereo partly drawn), the GI50 was inactive: 3.66 µM.

For `Oc1ccc(/C=C/c2ccc3cccc(O)c3n2)cc1O`, the GI50 was inactive: 7.01 µM.

As for `COc1cc(CCc2cccnc2)cc(OC)c1OC`, the GI50 is inactive: > 100 µM.
